The supplement of paper PMC11417369
± gives the standard deviation of the averaged measurements. This is one part of the list.

System: PfAP2-G AP2 domain (GST-tagged)
Assay: gcPBM binding intensity (ln(normalized median fluorescence intensity)); higher = stronger DNA binding
How it was run: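 For binding intensity, the highest Masliner-normalised natural-log median intensity across replicate spots of either probe orientation was taken. Protein bound to the array was stained with Alexa488 anti-GST antibody and scanned at 488 nm. The protein, GST-tagged P. falciparum DNA-binding domains from E. coli at about 25 μg on average, had been applied for 1 h to an Agilent 4 × 180k array of primer-extended double-stranded 36-bp intergenic genomic probes and negative controls.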

| Sequence | gcPBM binding intensity (ln) |
| --- | --- |
| TCCTGCCTCTCTTTGGTGCGTTGTAACCCTCGAGGA | 10.04 ± 0.057 |
| CCAATACTGTTTAAATGTACAAGTAGGAGGTTAATT [XGTACX_site7260] | 10.8 ± 0.41 |
| AAAAATTAACAAAAGGTGCAAACAAATAGTGGTTTT [GTGCAC_site9998] | 9.98 ± 0.085 |
| TAAAGGCAAACAAACACACACACATATATACATATA [CACACA_site2123] | 10.1 ± 0.19 |
| GTTATTCTTAATTTTTGTACACATTTTTATATTATT [XGTACX_site7227] | 11.4 ± 0.7 |
| AAAAAAGTAAAAAGTGCATGTAAAATATAAGTATCT [TGCATGCA_site55] | 10.5 ± 0.23 |
| TTTTTTTTTTATTTTGCACACTTCTAATTTAGTTGT [CACACA_site3429] | 10.2 ± 0.21 |
| ATATATATGTATATGTGTACTTATATTTGTCATTTT [XGTACX_site1317] | 11.4 ± 0.95 |
| AAAAAAATTAAACACACACACACATATATATATATA [CACACA_site4718] | 10 ± 0.49 |
| GAACAAAAGGAATGTTGTACATAAAAAATGAAAAAT [XGTACX_site3929] | 11.3 ± 0.66 |
| AATAAATATATAAATACACACAAACATACAGATATA [CACACA_site6088] | 10.11 ± 0.014 |
| TTTAAAAGATAAAGACTGCACTTTAAGCACACAAAT [GTGCAC_site9752] | 10.5 ± 0.38 |
| AATTCCTATAATGAGAGTACGCATTAGAACAGTAGG [XGTACX_site5721] | 11.3 ± 1 |
| AAATTGTAGAAGCGTATTTCTCGAACTGGATGAATA [CACACA_negctrl_site1373] | 10.095 ± 0.007 |
| AATTAATGGAAACAAGTCAAATGATCTTTATGCATA [TGCATGCA_negctrl_site540] | 9.76 ± 0.2 |
| AGTTTCCTTGAGAAAAGTACGTAATACTACATATAT [XGTACX_site818] | 11.2 ± 0.66 |
| ATATGATATATTTTATGTACATATAAAACATATATA [XGTACX_site4297] | 11.3 ± 0.73 |
| TTATACTTTTTTTCTTGGTGTAGAAAAAAAAGTTAG [CACACA_negctrl_site1207] | 10.3 ± 0.28 |
| TTTATATTAGGTCTTGAACGATTTTCATCATTATTA [TGCATGCA_negctrl_site100] | 9.97 ± 0.15 |
| AAAAAAGAAACAAACACACATACATACAAACAAACA [CACACA_site142] | 10.3 ± 0.28 |
| TTTATATCGACTCTTCTTTATATAAGTTGTGATGTT [TGCATGCA_negctrl_site362] | 9.94 ± 0.042 |
| TAAAGTGTAAAGAAGGTGCTCATTATTTATTTTTTT | 9.71 ± 0.13 |
| AAAAACGAAAAAAATACACACCTGAAAAGATATGTA [CACACA_site4644] | 9.72 ± 0.16 |

| Sequence | gcPBM binding intensity (ln) |
| --- | --- |
| GTATATATGTATATGTGTACATATATTTTATAATAT [XGTACX_site5703] | 11.3 ± 0.79 |
| AAAAACCATTCGCACACACACATAATCTATAATATA [CACACA_site6782] | 10.2 ± 0.18 |
| AAGTACCATATAGGCACACATATATATATATATATA [CACACA_site3282] | 10.3 ± 0.17 |
| AGATCATAATATTATACACACATTATATATATGTAA [CACACA_site8419] | 10.015 ± 0.007 |
| TGGAAAGTTATTAACACACACATATAAATATTTATA [CACACA_site6173] | 9.84 ± 0.099 |
| GGAATAACCAGACACACACACACATATATATATATA [CACACA_site3541] | 10.2 ± 0.31 |
| TATATATAATATTATACACACATATCTGCATAATAT [CACACA_site4202] | 9.99 ± 0.042 |
| TCCAATTCTTTATTTTGTACACATTATGTGCATATG [XGTACX_site6290] | 11.3 ± 0.54 |
| AAAAAAAAAAAAAAAACACACATTTATAGTATATAT [CACACA_site1194] | 10.2 ± 0.23 |
| GATTTATTTCATATCACACATTTTGGCTATTTTGTG [CACACA_site5793] | 10.2 ± 0.078 |
| CCATTTGGTATTATATGTACATATAATTTTTTTTTT [XGTACX_site157] | 11.2 ± 0.62 |
| AATCCTTCATATGTAGTGCATATTAACAAAATAAAA [GTGCAC_site9500] | 10.3 ± 0.36 |
| ATGAAATATTTATTTGTGCACTTAATTTGTTGGAAA | 10.4 ± 0.34 |
| GTTGTTATATAAAGGAGTACATAATAACACAAATAT [XGTACX_site615] | 11.7 ± 1.2 |
| TTTTCTTGTAGTATAACAAAATATAGTAATATATAT [GTGCAC_negctrl_site609] | 9.96 ± 0.15 |
| TAGGAGAAAAAAAAAAGTACCCACAACTATTATACT [XGTACX_site8195] | 11.3 ± 0.73 |
| TGGTAATATCGATTCACACATATCAAAATAAAAAAA [CACACA_site4196] | 9.96 ± 0.071 |
| AACATATTAATGTACACACACCCACGCACAAACAAA [CACACA_site7320] | 11.5 ± 0.91 |
| GCTATAAATACAGACGCACACATATACATACAGATA [CACACA_site5778] | 10.3 ± 0.32 |
| TGTTATTAGAAAAATGCACACCAAAAAAAAAAAAAA [CACACA_site8802] | 10.1 ± 0.52 |
| ATATACATAATATATAATATAAATATATATATGGAA [CACACA_negctrl_site906] | 9.37 ± 0.16 |
| TATTAAAATATTTATACACACATAATTTTGATAAAT [CACACA_site4486] | 9.87 |
| TGTCATTCCTCTTATTGTACAAAAATATTATAATAT [XGTACX_site1134] | 10.9 ± 0.56 |

| Sequence | gcPBM binding intensity (ln) |
| --- | --- |
| TAATTAATTTACATTTTAATTTTATACAAAATTTAT [CACACA_negctrl_site830] | 9.745 ± 0.035 |
| ACATATTTATATTCTACACACTTATACTATAATACA [CACACA_site7204] | 9.97 ± 0.057 |
| GTTATACGCATCAACACACACATACAACGTGGTGTA [CACACA_site1188] | 10 ± 0.17 |
| ATGGAACTTAAAAATTGTACACATAAAATGGAGAAG [XGTACX_site1823] | 11.5 ± 0.91 |
| TTATAAGATTTATGTACACACATATACACAGCTCTA [CACACA_site6481] | 11.5 ± 0.93 |
| TCCTAATGCTACCACACACACAAAAACAAATAATAA [CACACA_site2610] | 10.5 ± 0.57 |
| TAAATGAAAATATGTACACACTTGAAAACTTTTATG [CACACA_site7388] | 11.4 ± 0.73 |
| TGCAACAAAATAAACACACACACACTAGCACAAAAA [CACACA_site5805] | 10.2 ± 0.23 |
| TTTTTTTTTTTAGACACATGCATTTTTATAATTTTC [TGCATGCA_site843] | 9.675 ± 0.078 |
| AATATATATATTAAATGTACATTACATAATTATATA [XGTACX_site3450] | 10.9 ± 0.34 |
| ATATGTATGTATGTCTCAAAATTTCATATTATATTA [CACACA_negctrl_site784] | 9.82 ± 0.085 |
| TAGGATATTGAATAATGTACTTTATATATAATATAA [XGTACX_site7828] | 11 ± 0.73 |
| AAGAAATAAAAAAAACGTACATATATACATACATAC [XGTACX_site3980] | 11.4 ± 0.93 |
| TATATATATTAACTTGTGCGCAAAAAGATATAATTT [GTGCAC_site9672] | 10.4 ± 0.23 |
| AATATTTTGATGTGTACACATTAATACAGTTTTACA [CACACA_site5711] | 11.7 ± 0.91 |
| AAAAAAAAAAAAATACGTACACAAAAAATTGCAAAG [XGTACX_site5663] | 11.6 ± 0.81 |
| AATATATTAAAAAAGCGTACAAGAATTGGAAAATGG [XGTACX_site6576] | 11.5 ± 0.85 |
| GATATTTTTATTTGTTGTACTTAAGATAATAAATGA [XGTACX_site2891] | 11.3 ± 0.79 |
| TGTATAACCTGTGTTACACACATTAAAATTTATATA [CACACA_site4449] | 9.91 ± 0.13 |
| ATAAATGTGTTTATTTAACACACAAAAGAAAAAATA [CACACA_site8589] | 10.06 ± 0.064 |
| AAAGGAAAAAAAGTAGCACACAAATATTTATAATAT [CACACA_site8772] | 10.3 ± 0.13 |
| GTATCAAAAGAATACACACACACATACCTATAAATA [CACACA_site7737] | 10.2 ± 0.2 |
| TAAATAAAAAAAAATACACACATCTATATAAAATAT [CACACA_site3774] | 9.7 ± 0.24 |

| Sequence | gcPBM binding intensity (ln) |
| --- | --- |
| CATACATAAATATAAACATGCATATATTTTTTTTAT [TGCATGCA_site616] | 9.605 ± 0.035 |
| TGATATCTTAAGAAATGTACAAAGATATAACCATTT [XGTACX_site1913] | 10.7 ± 0.31 |
| ATTTTAATAAAATATGTACACACATACACCCATATA [CACACA_site8326] | 11.4 ± 0.96 |
| AAAAAAAAAACACACACATGCACATCATATTATATA [TGCATGCA_site133] | 9.78 ± 0.14 |
| TTATTTTTTCTTCAAATGTGAATTATTCATTTATTT [TGCATGCA_negctrl_site545] | 9.99 ± 0.12 |
| ATAATATGAAACTCGTACGAGGTTGTCCCAAATATA [CACACA_negctrl_site1350] | 10.9 ± 0.56 |
| TTAATACAAATAAAAAGTACAAGTATCGAACTACTA [XGTACX_site6308] | 11.3 ± 0.67 |
| TTTTTAGTAACATATAGTACATATATATATATATGT [XGTACX_site4780] | 10.9 ± 0.64 |
| AAAAAGAATGTGAACACACACATTGAATATAATTTA [CACACA_site1262] | 10.095 ± 0.007 |
| ATATATTATCAACTTACACACAGAAAAATATAATAA [CACACA_site293] | 9.975 ± 0.092 |
| GATATGTAAATAATATGTACATATTTATATTGTATT [XGTACX_site4052] | 11.3 ± 0.88 |
| TTTAAAGGTGATAAAACACACGATTTAGAAATGTAT [CACACA_site3161] | 9.97 ± 0.085 |
| TTAAAAAACATTTGAACATGCAATTGTATATGTAGA [TGCATGCA_site334] | 9.77 ± 0.19 |
| ATATATACCTATATTACACACTTCTTATTCTAAGAA [CACACA_site7421] | 9.865 ± 0.092 |
| ATTGTTACATAAAATGCACACTTTCAAATATGCTAA [CACACA_site5600] | 9.93 ± 0.014 |
| TATTTATTAAGACACACACACACACGCACAAAATAA [CACACA_site6254] | 10.6 ± 0.49 |
| AGGGTTCATATATTAACACACACATACATATTATAT [CACACA_site8959] | 9.99 ± 0.16 |
| TATACACATATATATAGTACATATATAATTTACTAT [XGTACX_site1849] | 10.7 ± 0.42 |
| AGTATTCTAATTTTTAAACACACAAATATAAATAAG [CACACA_site9029] | 9.91 ± 0.12 |
| GCAAAATAACAATGTTACACTTATAAAATTGAGGCA [GTGCAC_negctrl_site68] | 9.925 ± 0.078 |
